# Assay results as given in the supplement of paper PMC8728848.
# The other results are listed elsewhere or left out.
# B1: a L Fucosidase (Streptosporangium roseum), D2B1P1_STRRD (protein)
# chain: MRRKLLLVPAVGLLVIGSIFATQPVASADTPPVYEPTVESLNSHPVPQWFNDDKFGIFIHWGAYSVPAWGPRGSYAEWYGNYMNAGGSATNAHHKATYGQDFNYDAFLQQWKAEKFDPADWVKLFKDAGAKYFVLTSKHHEGMALWDSKSSGRDSVDLGPGRDLAKELFDAARKDEAKLKAGFYYSLYEWYNPAYTGRPATNPYTGAEIPYTGAPGGGDYVKDYMLPQMRELIDGYDPDIIWCDGQWEKPASYWNTAGVIADYYNKALNSGKEVAVANRCKIQSGNLDSPELDFQTPEYTVKPDIDPVKWESSRGIAHSYGYNQNEPEEDHLTSDQLVDSLVDIVSKNGNLLLDIGPKADGTIPEIQRQRLLDIGAWLKANGEAIYGTTYWNRAEEKGGPDDVRYTAKDATLYATALKWPGEQLTLGADLPVDHSTRITMLGSGARLSWSRDEQGRVVVNTPQEAGKHAYVFKIETPGVRSLLRTSSSLAKEIAPGRTISGELTVTNPGKRHTPATKLSLTVPQGWTATLGAPRVRPLGPGESVKVPISVSAPEGVAPAPYTLGLYQRTGRMGTTTALPLTVNRPNLSLGKPATQKSTGYDAPASRAVDGNTGGDWSAGSTTHTAEPEKQAWWQVDLGASARLDSVDVWNRLDCCADRLKDFWVMASDQPFTTDDLDQARTAPGVTAVHVGEQAGSPSKVKLPEGTRGRYVRIQLASPSNPLSLAEVQVRGSMARPNLSLGKPATQKSTGYDAPASRAVDGNTGGDWSAGSTTHTAEPEKQAWWQVDLGASARLDSVDVWNRLDCCADRLKDFWVMASDQPFTTDDLDQARTAPGVTAVHVGEQAGSPSKVKLPEGTRGRYVRIQLASPSNPLSLAEVQVRLEHHHHHHS
# Assays:
# Assay in all cases: glycan array binding signal (z-score within array); higher = stronger binding
# Conditions in all cases: glycan notation: IUPAC condensed, linker removed
# [1] = biological target: Gal(b1-3)GlcNAc(b1-2)Man(a1-3)[Gal(b1-3)GlcNAc(b1-2)Man(a1-6)]Man(b1-4)GlcNAc(b1-4)GlcNAc
# Procedure, shortened: (§1)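 Glycan array data came from 3228 arrays in the Consortium for Functional Glycomics database, and only arrays with an available protein sequence were kept. Glycan names were put into IUPAC-condensed notation, and columns mapping to the same glycan were averaged. The binding signal is a within-array Z-score, averaged across arrays of one protein sequence run at different concentrations or buffers and across linkers. A negative Z-score can be read as non-binding.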
# [2] = biological target: Gal(b1-3)GlcNAc(b1-2)Man(a1-3)[Gal(b1-3)GlcNAc(b1-2)Man(a1-6)]Man(b1-4)GlcNAc(b1-4)[Fuc(a1-6)]GlcNAc
# Procedure, shortened: as §1
# [3] = biological target: Gal(b1-3)GlcNAc(b1-2)Man(a1-3)[GlcNAc(b1-4)][Gal(b1-3)GlcNAc(b1-2)Man(a1-6)]Man(b1-4)GlcNAc(b1-4)GlcNAc
# Procedure, shortened: as §1
# [4] = biological target: Gal(b1-3)GlcNAc(b1-2)[Gal(b1-3)GlcNAc(b1-6)]Man(a1-6)[Gal(b1-3)GlcNAc(b1-2)Man(a1-3)]Man(b1-4)GlcNAc(b1-4)GlcNAc
# Procedure, shortened: as §1
# [5] = biological target: Gal(b1-3)GlcNAc(b1-3)Gal(b1-3)GlcNAc
# Procedure, shortened: as §1
# [6] = biological target: Gal(b1-3)GlcNAc(b1-3)Gal(b1-4)Glc
# Procedure, shortened: as §1
# [7] = biological target: Gal(b1-3)GlcNAc(b1-3)Gal(b1-4)GlcNAc
# Procedure, shortened: as §1
# [8] = biological target: Gal(b1-3)GlcNAc(b1-3)Gal(b1-4)GlcNAc(b1-2)Man(a1-3)[Gal(b1-3)GlcNAc(b1-3)Gal(b1-4)GlcNAc(b1-2)Man(a1-6)]Man(b1-4)GlcNAc(b1-4)GlcNAc
# Procedure, shortened: as §1
# [9] = biological target: Gal(b1-3)GlcNAc(b1-3)Gal(b1-4)GlcNAc(b1-2)[Gal(b1-3)GlcNAc(b1-3)Gal(b1-4)GlcNAc(b1-6)]Man(a1-6)[Gal(b1-3)GlcNAc(b1-3)Gal(b1-4)GlcNAc(b1-2)Man(a1-3)]Man(b1-4)GlcNAc(b1-4)[Fuc(a1-6)]GlcNAc
# Procedure, shortened: as §1
# [10] = biological target: Gal(b1-3)GlcNAc(b1-3)Gal(b1-4)GlcNAc(b1-3)Gal(b1-4)GlcNAc(b1-2)[Gal(b1-3)GlcNAc(b1-3)Gal(b1-4)GlcNAc(b1-3)Gal(b1-4)GlcNAc(b1-6)]Man(a1-6)[Gal(b1-3)GlcNAc(b1-3)Gal(b1-4)GlcNAc(b1-3)Gal(b1-4)GlcNAc(b1-2)Man(a1-3)]Man(b1-4)GlcNAc(b1-4)[Fuc(a1-6)]GlcNAc
# Procedure, shortened: as §1
# [11] = biological target: Gal(b1-3)GlcNAc(b1-3)Gal(b1-4)GlcNAc(b1-6)[Gal(b1-3)GlcNAc(b1-3)]Gal(b1-4)Glc
# Procedure, shortened: as §1
# [12] = biological target: Gal(b1-3)GlcNAc(b1-3)Gal(b1-4)[Fuc(a1-3)]GlcNAc
# Procedure, shortened: as §1
# [13] = biological target: Gal(b1-3)GlcNAc(b1-3)Gal(b1-4)[Fuc(a1-3)]GlcNAc(b1-6)[Gal(b1-3)GlcNAc(b1-3)]Gal(b1-4)Glc
# Procedure, shortened: as §1
# [14] = biological target: Gal(b1-3)GlcNAc(b1-3)GalNAc
# Procedure, shortened: as §1
# [15] = biological target: Gal(b1-3)GlcNAc(b1-6)Gal(b1-4)GlcNAc
# Procedure, shortened: as §1
# [16] = biological target: Gal(b1-3)GlcNAc(b1-6)GalNAc
# Procedure, shortened: as §1
# [17] = biological target: Gal(b1-3)GlcNAc(b1-6)[Gal(b1-3)]GalNAc
# Procedure, shortened: as §1
# Gal(b1-3)GlcNAc6S = biological target: Gal(b1-3)GlcNAc6S
# Procedure, shortened: as §1
# [18] = biological target: Gal(b1-3)[Fuc(a1-4)]GlcNAc
# Procedure, shortened: as §1
# [19] = biological target: Gal(b1-3)[Fuc(a1-4)]GlcNAc(b1-2)Man
# Procedure, shortened: as §1
# [20] = biological target: Gal(b1-3)[Fuc(a1-4)]GlcNAc(b1-2)Man(a1-3)[Gal(b1-3)[Fuc(a1-4)]GlcNAc(b1-2)Man(a1-6)]Man(b1-4)GlcNAc(b1-4)[Fuc(a1-6)]GlcNAc
# Procedure, shortened: as §1
# [21] = biological target: Gal(b1-3)[Fuc(a1-4)]GlcNAc(b1-3)Gal(b1-3)[Fuc(a1-4)]GlcNAc
# Procedure, shortened: as §1
# [22] = biological target: Gal(b1-3)[Fuc(a1-4)]GlcNAc(b1-3)Gal(b1-4)[Fuc(a1-3)]GlcNAc
# Procedure, shortened: as §1
# [23] = biological target: Gal(b1-3)[Fuc(a1-4)]GlcNAc(b1-6)GalNAc
# Procedure, shortened: as §1
# [24] = biological target: Gal(b1-3)[GlcNAc(b1-6)]GalNAc
# Procedure, shortened: as §1
# [25] = biological target: Gal(b1-3)[Neu5Ac(a2-6)]GalNAc
# Procedure, shortened: as §1
# [26] = biological target: Gal(b1-3)[Neu5Ac(a2-6)]GlcNAc(b1-4)Gal(b1-4)Glc
# Procedure, shortened: as §1
# [27] = biological target: Gal(b1-3)[Neu5Ac(b2-6)]GalNAc
# Procedure, shortened: as §1
# Gal(b1-4)Gal = biological target: Gal(b1-4)Gal
# Procedure, shortened: as §1
# [28] = biological target: Gal(b1-4)GalNAc(a1-3)[Fuc(a1-2)]Gal(b1-4)GlcNAc
# Procedure, shortened: as §1
binder,measurement,setting,value
B1,glycan array binding signal (z-score),[1],-0.357
same,glycan array binding signal (z-score),[2],-0.264
same,glycan array binding signal (z-score),[3],1.88
same,glycan array binding signal (z-score),[4],-0.053
same,glycan array binding signal (z-score),[5],-0.373
same,glycan array binding signal (z-score),[6],-0.317
same,glycan array binding signal (z-score),[7],-0.177
same,glycan array binding signal (z-score),[8],-0.381
same,glycan array binding signal (z-score),[9],-0.343
same,glycan array binding signal (z-score),[10],-0.126
same,glycan array binding signal (z-score),[11],-0.27
same,glycan array binding signal (z-score),[12],0.228
same,glycan array binding signal (z-score),[13],-0.561
same,glycan array binding signal (z-score),[14],-0.161
same,glycan array binding signal (z-score),[15],-0.601
same,glycan array binding signal (z-score),[16],-0.197
same,glycan array binding signal (z-score),[17],-0.234
same,glycan array binding signal (z-score),Gal(b1-3)GlcNAc6S,-0.504
same,glycan array binding signal (z-score),[18],-0.167
same,glycan array binding signal (z-score),[19],0.436
same,glycan array binding signal (z-score),[20],0.118
same,glycan array binding signal (z-score),[21],0.302
same,glycan array binding signal (z-score),[22],-0.103
same,glycan array binding signal (z-score),[23],-0.215
same,glycan array binding signal (z-score),[24],-0.548
same,glycan array binding signal (z-score),[25],-0.356
same,glycan array binding signal (z-score),[26],-0.397
same,glycan array binding signal (z-score),[27],-0.23
same,glycan array binding signal (z-score),Gal(b1-4)Gal,-0.166
same,glycan array binding signal (z-score),[28],-0.33
